A compilation of properties of binary mixtures (doi:10.1021/je1011289)
Some of these densities may be calculated back from excess volumes.

Experiment: xn = mol fraction of the nth substance listed
Settings: 101 kPa

c1cc[nH]c1 + CC[n+]1ccn(C)c1.N#C[S-]
mass density [kg/m3]
Settings | x1 = 0.2 | x1 = 0.3 | x1 = 0.4 | x1 = 0.5 | x1 = 0.6 | x1 = 0.7 | x1 = 0.8
298.15 K | 1103.5 | 1094.5 | 1088.6 | 1073.6 | 1056.2 | 1049.2 | 1028.4
303.15 K | – | 1091.3 | – | 1070.3 | 1052.8 | 1045.7 | –
308.15 K | 1097.2 | – | – | 1066.9 | – | 1042.2 | 1021
313.15 K | 1094.1 | 1085 | 1079 | 1063.6 | 1045.8 | 1038.8 | 1017.4
318.15 K | 1091 | 1081.9 | 1075.8 | 1060.4 | 1042.4 | – | –
323.15 K | 1087.9 | 1078.8 | 1072.6 | – | – | 1031.9 | 1010.1

c1ccc2c(c1)CCN2 + CC[n+]1ccn(C)c1.N#C[S-]
mass density [kg/m3]
Settings | x1 = 0.2 | x1 = 0.3 | x1 = 0.4 | x1 = 0.5 | x1 = 0.6 | x1 = 0.7 | x1 = 0.8
298.15 K | – | 1109.3 | 1106.1 | – | 1099.2 | 1092.7 | –
303.15 K | 1110 | 1106.1 | – | 1100.9 | 1095.9 | – | –
308.15 K | 1106.9 | – | – | 1097.6 | 1092.6 | 1085.8 | 1076.5
313.15 K | 1103.8 | 1099.9 | 1096.5 | – | 1089.2 | 1082.4 | 1072.9
318.15 K | 1100.8 | 1096.7 | 1093.3 | 1091.1 | 1085.9 | 1078.9 | 1069.3
323.15 K | 1097.7 | 1093.6 | 1090.1 | 1087.9 | 1082.6 | – | 1065.6

c1ccc2ncccc2c1 + CC[n+]1ccn(C)c1.N#C[S-]
mass density [kg/m3]
Settings | x1 = 0.2 | x1 = 0.3 | x1 = 0.4 | x1 = 0.5 | x1 = 0.6 | x1 = 0.7 | x1 = 0.8
298.15 K | 1117.3 | 1117.2 | – | 1116.3 | 1114 | 1112.2 | 1108.4
303.15 K | 1114.1 | 1114.1 | 1113.8 | 1113.1 | – | – | 1104.9
308.15 K | 1111 | 1110.9 | – | – | 1107.1 | 1105.3 | 1101.2
313.15 K | 1107.9 | 1107.7 | 1107.4 | – | 1103.7 | 1101.8 | 1097.6
318.15 K | 1104.7 | 1104.5 | – | 1103.3 | 1100.2 | 1098.3 | –
323.15 K | 1101.6 | – | 1101 | 1100 | 1096.8 | – | 1090.4

CC[n+]1ccn(C)c1.N#C[S-] + O
mass density [kg/m3]
Settings | x2 = 0.2 | x2 = 0.3 | x2 = 0.4 | x2 = 0.5 | x2 = 0.6 | x2 = 0.7 | x2 = 0.8
298.15 K | 1111.2 | 1110.4 | – | 1104.2 | 1099.7 | 1089.3 | 1075.8
303.15 K | 1108.1 | 1107.4 | 1103.5 | 1101 | 1096.6 | – | 1072.5
308.15 K | – | – | – | 1097.8 | 1093.4 | 1082.8 | 1069.3
313.15 K | – | 1101.2 | 1097.2 | – | 1090.2 | – | 1065.9
318.15 K | – | 1098.2 | 1094.1 | 1091.5 | 1087 | 1076.3 | 1062.6
323.15 K | – | 1095.1 | – | 1088.3 | 1083.8 | 1073.1 | 1059.1

CC[n+]1ccn(C)c1.N#C[S-] + c1ccncc1
mass density [kg/m3]
Settings | x2 = 0.2 | x2 = 0.3 | x2 = 0.4 | x2 = 0.5 | x2 = 0.6 | x2 = 0.7 | x2 = 0.8
298.15 K | 1102.1 | – | 1092.8 | 1082.3 | 1072.6 | 1060.1 | 1045.2
303.15 K | 1098.9 | 1093.3 | 1089.5 | 1078.8 | – | 1056.3 | –
308.15 K | 1095.7 | – | 1086.2 | 1075.4 | 1065.5 | – | 1037.2
313.15 K | 1092.5 | – | 1083 | – | 1062 | 1048.8 | 1033.2
318.15 K | 1089.4 | 1083.6 | 1079.7 | 1068.6 | – | – | –
323.15 K | 1086.2 | 1080.4 | 1076.5 | 1065.3 | 1055 | – | 1025.3

CC[n+]1ccn(C)c1.N#C[S-] + c1ccsc1
mass density [kg/m3]
Settings | x2 = 0.2 | x2 = 0.3 | x2 = 0.4 | x2 = 0.5 | x2 = 0.6 | x2 = 0.7 | x2 = 0.8
298.15 K | – | 1115.7 | 1115 | – | 1112.2 | 1106.1 | 1110.7
303.15 K | 1113.3 | – | 1111.9 | – | 1108.5 | 1102.4 | 1106.7
308.15 K | 1110.1 | 1109 | – | – | 1104.9 | 1098.6 | –
313.15 K | 1106.9 | 1105.6 | 1105.5 | 1103.1 | 1101.2 | 1094.7 | –
318.15 K | 1103.7 | 1102.3 | – | 1099.3 | 1097.6 | 1090.9 | 1093.5
323.15 K | 1100.5 | – | 1099.2 | 1095.5 | 1094 | 1087 | 1088.9
